# Results published in patent US11457629B2, “Heteroarylphenylaminoquinolines and analogues” (Bayer Aktiengesellschaft, priority 2017, dated 2022).
# Method: In the following, measurement of Log P values was performed according to EEC directive 79/831 Annex V.A8 by HPLC (High Performance Liquid Chromatography) on reversed phase columns with the following methods: • ^[a]
# If more than one Log P value is available within the same method, all the values are given and separated by “+”.
# Calibration was done with straight-chain alkan2-ones (with 3 to 16 carbon atoms) with known Log P values (measurement of Log P values using retention times with linear interpolation between successive alkanones). Lambda-max-values were determined using UV-spectra from 200 nm to 400 nm and the peak values of the chromatographic signals.
logP,Log P,SMILES
–,2.68 ^[a],Cc1c(Nc2ccc(OC(F)(F)F)cc2-c2ccnn2C)cnc2ccccc12 [Example I-257]
–,2.86 ^[a],CCn1nccc1-c1ccccc1Cc1cnc2c(F)cccc2c1 [Example I-354]
–,3.59 ^[a],CCCn1nccc1-c1cc(F)ccc1Nc1cc2ccc(F)c(F)c2nc1C [Example I-301]
–,3.06 ^[a],CC(C)n1nccc1-c1ccccc1Cc1cnc2ccccc2n1 [Example I-356]
–,3.94 ^[a],Cc1nc2c(F)c(F)ccc2cc1Nc1cccc(F)c1-c1cc(C(F)(F)F)nn1C [Example I-303]
–,3.87 ^[a],C=CCn1nccc1-c1ccccc1Cc1cc2ccc(F)c(F)c2nc1C [Example I-321]
–,3.48 ^[a],Cn1nccc1-c1ccccc1Cc1cnc2c(C(F)(F)F)cccc2c1 [Example I-337]
–,2.16 ^[a],Cn1nccc1-c1c(F)cccc1Nc1c[nH]c2c(F)c(F)ccc2c1=O [Example I-270]
–,2.37 ^[a],CCn1nccc1-c1c(F)cccc1Nc1c[nH]c2c(F)c(F)ccc2c1=O [Example I-266]
–,4.25 ^[a],Cc1nc2c(F)c(F)ccc2cc1Nc1ccc(F)cc1-c1ccnn1C(C)(C)C [Example I-279]
–,3.76 ^[a],CCCn1nccc1-c1c(F)cccc1Nc1cc2ccc(F)c(F)c2nc1C [Example I-324]
–,3.25 ^[a],CCn1nccc1-c1ccccc1Cc1cnc2c(Cl)cccc2c1 [Example I-346]
–,4.08 ^[a],CCn1ncc(Cl)c1-c1c(Nc2cnc3ccccc3c2Cl)ccc(F)c1F [Example I-316]
–,3.63 ^[a],Cc1nc2ccccc2nc1Nc1ccc(OC(F)(F)F)cc1-c1ccnn1C [Example I-254]
–,3.49 ^[a],CCn1nccc1-c1c(Nc2cnc3c(F)c(F)ccc3c2F)ccc(F)c1F [Example I-268]
–,3.31 ^[a],CCn1nccc1-c1ccccc1Cc1nc2ccc(F)c(F)c2nc1C [Example I-339]
–,3.06 ^[a],Cc1nc2c(F)c(F)ccc2cc1Cc1cccc(F)c1-c1ccnn1C [Example I-332]

logP,Log P,SMILES
–,2.20 ^[a],CCn1nccc1-c1c(F)ccc(F)c1Nc1c[nH]c2c(F)c(F)ccc2c1=O [Example I-267]
–,3.46 ^[a],CCn1nccc1-c1cc(F)ccc1Cc1cc2ccc(F)c(F)c2nc1C [Example I-333]
–,3.72 ^[a],CCCn1nccc1-c1ccccc1Cc1cc2ccc(F)c(F)c2nc1C [Example I-293]
–,2.23 ^[a],Cn1nccc1-c1c(Nc2c[nH]c3c(F)c(F)ccc3c2=O)ccc(F)c1F [Example I-274]
–,3.79 ^[a],CCn1nccc1-c1c(Nc2cnc3c(F)c(F)ccc3n2)ccc(F)c1F [Example I-250]
–,1.73 ^[a],Cc1nc2ccccc2cc1Cc1ccccc1-c1ccnn1C(C)C [Example I-347]
–,2.94 ^[a],Cn1nccc1-c1ccccc1Cc1cnc2c(Cl)cccc2c1 [Example I-340]
–,2.49 ^[a],CCn1nccc1-c1c(Nc2c[nH]c3c(F)c(F)ccc3c2=O)ccc(F)c1F [Example I-269]
–,1.88 ^[a],CCn1nccc1-c1c(F)ccc(F)c1Nc1cnc2ccccc2c1C [Example I-262]
–,3.76 ^[a],Cc1nc2c(F)c(F)ccc2cc1Cc1ccccc1-c1ccnn1C(C)C [Example I-327]
–,2.64 ^[a],CCn1nccc1-c1ccccc1Cc1cnc2ccccc2n1 [Example I-358]
–,3.15 ^[a],CCn1ncc(F)c1-c1c(F)c(F)cc(F)c1Nc1nc2ccccc2nc1C [Example I-314]
–,2.57 ^[a],Cn1nccc1-c1ccccc1Cc1cnc2c(F)cccc2c1 [Example I-353]
–,2.39 ^[a],CCn1nccc1-c1c(Nc2cnc3ccccc3c2C)ccc(F)c1F [Example I-261]
–,3.31 ^[a],CCn1ncc(F)c1-c1c(Nc2nc3ccccc3nc2C)ccc(F)c1F [Example I-319]
–,2.61 ^[a],CCn1nccc1-c1c(F)ccc(F)c1Nc1nc2ccccc2nc1C [Example I-310]

# Second part, the compound before the results:
SMILES,logP,Log P
Cc1nc2c(F)c(F)ccc2cc1Nc1ccc(F)cc1-c1ccnn1CCc1ccccc1 [Example I-145],4.20 ^[a],–
Cn1nccc1-c1cc(F)ccc1Nc1cnc2ccnn2c1 [Example I-137],1.95 ^[a],–
CCn1nccc1-c1ccccc1Cc1cnc2ccccc2c1 [Example I-072],2.07 ^[a],–
CCn1nccc1-c1ccccc1Nc1cc2ccc(F)c(F)c2nc1C [Example I-149],3.27 ^[a],–
Cn1nccc1-c1cc(F)ccc1Nc1cnc2c(F)cccc2c1 [Example I-143],2.64 ^[a],–
CCn1nccc1-c1cc(F)ccc1Nc1cnc2ccnn2c1 [Example I-142],2.17 ^[a],–
Fc1cccc(Nc2cnc3ccnn3c2)c1-c1ccnn1CCc1ccccc1 [Example I-123],3.09 ^[a],–
Fc1cccc(Nc2cnc3c(F)c(F)ccc3n2)c1-c1ccnn1CCc1ccccc1 [Example I-118],4.41 ^[a],–
Cn1nccc1-c1cc(Cl)ccc1Nc1cnc2c(F)c(F)ccc2c1 [Example I-228],3.37 ^[a],–
Cn1nccc1-c1ccccc1Nc1cnc2c(F)c(F)ccc2c1 [Example I-152],2.80 ^[a],–
CCn1nccc1-c1ccccc1Nc1cnc2ccnn2c1 [Example I-139],2.10 ^[a],–
CCC1=NOC(c2ccccc2Nc2cc3ccccc3nc2C)C1 (stereo not drawn) [Example I-016],3.11 ^[b],–
CC1(C)CC(c2ccccc2Nc2cnc3ccccc3c2)=NO1 [Example I-037],3.42 ^[a],–
Cc1nc2c(F)c(F)ccc2cc1Nc1ccccc1-c1ccn(C)n1 [Example I-048],4.24 ^[a],–
Cc1ccc(F)c(-c2ccnn2C)c1Nc1nc2ccccc2nc1C [Example I-176],2.43 ^[a],–
Cc1ccc(Nc2cnc3c(F)cccc3c2)c(-c2ccnn2C)c1 [Example I-231],2.92 ^[a],–
CCn1nccc1-c1c(F)cccc1Nc1cnc2ccnn2c1 [Example I-095],2.12 ^[a],–
Cc1cc(C)c(Nc2cnc3ccccc3c2C)c(-c2ccnn2C)c1F [Example I-196],1.75 ^[a],–
Cc1nc2c(F)c(F)ccc2cc1Nc1ccccc1-c1ccnn1CCc1ccccc1 [Example I-146],4.27 ^[a],–
CCn1nccc1-c1c(F)cccc1Nc1cnc2c(F)c(F)ccc2n1 [Example I-093],3.44 ^[a],–
Cc1ccc(Nc2cc3ccc(F)c(F)c3nc2C)c(-c2ccnn2C)c1 [Example I-229],3.33 ^[a],–
Cn1nccc1-c1ccccc1Cc1cnc2ccccc2c1C(F)F [Example I-200],2.92 ^[a],–
CC1=NOC(c2ccccc2Nc2cnc3c(F)cccc3c2)C1 (stereo not drawn) [Example I-014],2.64 ^[b],–
Cc1cnn(C)c1-c1c(F)cccc1Nc1nc2ccccc2nc1C [Example I-192],3.02 ^[a],–
Cc1nc2ccccc2nc1Nc1ccc(Cl)cc1-c1ccnn1C [Example I-224],3.31 ^[a],–
CC(C)n1nccc1-c1ccccc1Cc1cnc2ccccc2c1 [Example I-071],2.41 ^[a],–

SMILES,logP,Log P
Cn1nccc1-c1c(Nc2cnc3c(C(F)(F)F)cccc3c2)ccc(F)c1F [Example I-241],3.54 ^[a],–
Cc1ccc(Nc2cnc3c(F)cccc3c2C)c(-c2ccnn2C)c1F [Example I-209],3.17 ^[a],–
Cc1ccc(Nc2cnc3c(C)cccc3c2)c(-c2ccnn2C)c1 [Example I-215],2.62 ^[a],–
Cc1c(Nc2ccccc2-c2ccnn2C)cnc2ccccc12 [Example I-156],1.69 ^[a],–
Cc1ccc(Nc2cnc3c(F)cccc3c2)c(-c2ccnn2C)c1F [Example I-206],2.99 ^[a],–
CCC1=NOC(C)(c2ccccc2Nc2cnc3ccccc3c2)C1 (stereo not drawn) [Example I-023],3.33 ^[b],–
CC(C)n1nccc1-c1c(F)cccc1Nc1cnc2ccnn2c1 [Example I-106],2.51 ^[a],–
CC(C)n1nccc1-c1ccccc1Nc1cnc2c(F)cccc2c1 [Example I-128],3.01 ^[a],–
CC1=NOC(c2ccccc2Nc2cc3ccc(F)c(F)c3nc2C)C1 (stereo not drawn) [Example I-013],3.15 ^[b],–
Fc1ccc2cc(Nc3ccccc3-c3ccnn3Cc3ccccc3)cnc2c1F [Example I-098],3.76 ^[a],–
Cc1nc2c(F)c(F)ccc2nc1Nc1ccccc1-c1ccnn1C [Example I-180],3.00 ^[a],–
CC(C)(C)[Si](C)(C)OCc1ccnn1-c1c(F)cccc1Nc1cnc2ccccc2c1 [Example I-075],4.93 ^[a],–
CC1(C)CC(c2ccccc2Nc2cnc3c(F)cccc3c2)=NO1 [Example I-039],3.92 ^[a],–
Cc1cnn(C)c1-c1c(F)cccc1Nc1cnc2c(F)cccc2c1C [Example I-208],3.06 ^[a],–
CCn1nccc1-c1ccccc1Nc1cnc2ccccc2c1Cl [Example I-164],3.27 ^[a],–
Cn1nccc1-c1ccccc1Nc1cnc2c(F)cccc2c1 [Example I-162],2.55 ^[a],–
Cn1nccc1-c1c(Nc2cnc3c(F)cccc3c2)ccc(F)c1F [Example I-236],2.74 ^[a],–
Cc1nc2ccccc2cc1Nc1ccccc1-c1ccn(C(C)(C)C)n1 [Example I-006],3.01 ^[a],–
CC(C)n1nccc1-c1ccccc1Nc1cnc2c(F)c(F)ccc2c1 [Example I-127],3.30 ^[a],–
Cn1nccc1-c1ccccc1Nc1cnc2ccccc2c1 [Example I-007],1.90 ^[a],–
Cc1nc2c(F)c(F)ccc2cc1Nc1cccc(F)c1C1=NOC(C)(C)C1 [Example I-060],4.80 ^[a],–
Cn1cncc1-c1cc(F)ccc1Nc1cnc2c(C(F)(F)F)cccc2c1 [Example I-249],–,1.96 ^[a]
Cc1c(Nc2cccc(F)c2-c2ccnn2C(C)C)cnc2ccccc12 [Example I-102],2.76 ^[a],–
CCn1nccc1-c1c(Nc2cnc3c(F)cccc3c2)ccc(F)c1F [Example I-242],2.98 ^[a],–
Fc1ccc(Nc2cnc3ccccc3c2Cl)c(-c2ccnn2CCc2ccccc2)c1 [Example I-168],4.30 ^[a],–

# Marks after values point to notes of the source that are not given here.
